Experimental data from PMC8986097.
These are yes or no findings as the source states them, for the method shown. Some entries that bind do so weakly or less than the wild type. Sequences can lack the tags named with a protein.

What follows are binders tested against Smt3 (SUMO), DNA Binding Domain fusion, two-hybrid bait (S. cerevisiae) [SUMO: Q12306] (assay: two-hybrid; Smt3 as bait (BD fusion), Yen1 versions as prey (AD fusion); growth on selective medium lacking leucine, tryptophan and histidine, with 3-aminotriazole).

binding	Binder
binds	Yen1, wild-type full-length, Activator Domain fusion, two-hybrid prey (protein, UniProt P40028 1-759) MGVSQIWEFLKPYLQDSRIPLRKFVIDFNKSQKRAPRIAIDAYGWLFECGFIQNIDISARSRSRSRSPTRSPRDSDIDSSQEYYGSRSYTTTGKAVINFISRLKELLSLNVEFLLVFDGVMKPSFKRKFNHEQNATTCDDEKEYYSSWEQHVKNHEVYGNCKGLLAPSDPEFISLVRKLLDLMNISYVIACGEGEAQCVWLQVSGAVDFILSNDSDTLVFGGEKILKNYSKFYDDFGPSSITSHSPSRHHDSKESFVTVIDLPKINKVAGKKFDRLSLLFFSVLLGADYNRGVKGLGKNKSLQLAQCEDPNFSMEFYDIFKDFNLEDLTSESLRKSRYRLFQKRLYLYCKDHSVELFGRNYPVLLNQGSFEGWPSTVAIMHYFHPIVQPYFDEEVLSDKYINMAGNGHYRNLNFNELKYFLQSLNLPQISSFDKWFHDSMHEMFLLREFLSIDESDNIGKGNMRITEEKIMNIDGGKFQIPCFKIRYTTFLPNIPISSQSPLKRSNSPSRSKSPTRRQMDIMEHPNSLWLPKYLIPQSHPLVIQYYETQQLIQKEKEKKGKKSNKSRLPQKNNLDEFLRKHTSPIKSIGKVGESRKEILEPVRKRLFVDTDEDTSLEEIPAPTRLTTVDEHSDNDDDSLIFVDEITNSQSVLDSSPGKRIRDLTQDEQVDVWKDVIEISPIKKSRTTNAEKNPPESGLKSRSSITINARLQGTKMLPPNLTAPRLEREHSSVLDQLVTDAQDTVDRFVACDSDSSSTIE
no binding	Yen1 truncated version lacking the C-terminal part (cut-off at amino acid 354), Activator Domain fusion, two-hybrid prey (domain or fragment, UniProt P40028 1-354) MGVSQIWEFLKPYLQDSRIPLRKFVIDFNKSQKRAPRIAIDAYGWLFECGFIQNIDISARSRSRSRSPTRSPRDSDIDSSQEYYGSRSYTTTGKAVINFISRLKELLSLNVEFLLVFDGVMKPSFKRKFNHEQNATTCDDEKEYYSSWEQHVKNHEVYGNCKGLLAPSDPEFISLVRKLLDLMNISYVIACGEGEAQCVWLQVSGAVDFILSNDSDTLVFGGEKILKNYSKFYDDFGPSSITSHSPSRHHDSKESFVTVIDLPKINKVAGKKFDRLSLLFFSVLLGADYNRGVKGLGKNKSLQLAQCEDPNFSMEFYDIFKDFNLEDLTSESLRKSRYRLFQKRLYLYCKDHSV
binds	Yen1 C-terminal part (amino acids 354 to 759), Activator Domain fusion, two-hybrid prey (domain or fragment, UniProt P40028 354-759) VELFGRNYPVLLNQGSFEGWPSTVAIMHYFHPIVQPYFDEEVLSDKYINMAGNGHYRNLNFNELKYFLQSLNLPQISSFDKWFHDSMHEMFLLREFLSIDESDNIGKGNMRITEEKIMNIDGGKFQIPCFKIRYTTFLPNIPISSQSPLKRSNSPSRSKSPTRRQMDIMEHPNSLWLPKYLIPQSHPLVIQYYETQQLIQKEKEKKGKKSNKSRLPQKNNLDEFLRKHTSPIKSIGKVGESRKEILEPVRKRLFVDTDEDTSLEEIPAPTRLTTVDEHSDNDDDSLIFVDEITNSQSVLDSSPGKRIRDLTQDEQVDVWKDVIEISPIKKSRTTNAEKNPPESGLKSRSSITINARLQGTKMLPPNLTAPRLEREHSSVLDQLVTDAQDTVDRFVACDSDSSSTIE

What follows are binders tested against GST-Smt3 (S. cerevisiae) [SUMO: Q12306] (assay: pull-down; purified GST-Smt3 bound to glutathione matrix (GST buffer: 25 mM Tris-HCl pH 8.0, 150 mM NaCl, 1 mM DTT); purified wild-type or mutated Yen1 loaded, 3 min at 4°C, washed; retained proteins by immunoblot; both purified).

binding	Binder
binds	Yen1-1xHA, wild-type, purified (protein, UniProt P40028 1-759) MGVSQIWEFLKPYLQDSRIPLRKFVIDFNKSQKRAPRIAIDAYGWLFECGFIQNIDISARSRSRSRSPTRSPRDSDIDSSQEYYGSRSYTTTGKAVINFISRLKELLSLNVEFLLVFDGVMKPSFKRKFNHEQNATTCDDEKEYYSSWEQHVKNHEVYGNCKGLLAPSDPEFISLVRKLLDLMNISYVIACGEGEAQCVWLQVSGAVDFILSNDSDTLVFGGEKILKNYSKFYDDFGPSSITSHSPSRHHDSKESFVTVIDLPKINKVAGKKFDRLSLLFFSVLLGADYNRGVKGLGKNKSLQLAQCEDPNFSMEFYDIFKDFNLEDLTSESLRKSRYRLFQKRLYLYCKDHSVELFGRNYPVLLNQGSFEGWPSTVAIMHYFHPIVQPYFDEEVLSDKYINMAGNGHYRNLNFNELKYFLQSLNLPQISSFDKWFHDSMHEMFLLREFLSIDESDNIGKGNMRITEEKIMNIDGGKFQIPCFKIRYTTFLPNIPISSQSPLKRSNSPSRSKSPTRRQMDIMEHPNSLWLPKYLIPQSHPLVIQYYETQQLIQKEKEKKGKKSNKSRLPQKNNLDEFLRKHTSPIKSIGKVGESRKEILEPVRKRLFVDTDEDTSLEEIPAPTRLTTVDEHSDNDDDSLIFVDEITNSQSVLDSSPGKRIRDLTQDEQVDVWKDVIEISPIKKSRTTNAEKNPPESGLKSRSSITINARLQGTKMLPPNLTAPRLEREHSSVLDQLVTDAQDTVDRFVACDSDSSSTIE
binds	Yen1 SIM2Δ (V675A E677A), HA-tagged, purified (protein, UniProt P40028 1-759) MGVSQIWEFLKPYLQDSRIPLRKFVIDFNKSQKRAPRIAIDAYGWLFECGFIQNIDISARSRSRSRSPTRSPRDSDIDSSQEYYGSRSYTTTGKAVINFISRLKELLSLNVEFLLVFDGVMKPSFKRKFNHEQNATTCDDEKEYYSSWEQHVKNHEVYGNCKGLLAPSDPEFISLVRKLLDLMNISYVIACGEGEAQCVWLQVSGAVDFILSNDSDTLVFGGEKILKNYSKFYDDFGPSSITSHSPSRHHDSKESFVTVIDLPKINKVAGKKFDRLSLLFFSVLLGADYNRGVKGLGKNKSLQLAQCEDPNFSMEFYDIFKDFNLEDLTSESLRKSRYRLFQKRLYLYCKDHSVELFGRNYPVLLNQGSFEGWPSTVAIMHYFHPIVQPYFDEEVLSDKYINMAGNGHYRNLNFNELKYFLQSLNLPQISSFDKWFHDSMHEMFLLREFLSIDESDNIGKGNMRITEEKIMNIDGGKFQIPCFKIRYTTFLPNIPISSQSPLKRSNSPSRSKSPTRRQMDIMEHPNSLWLPKYLIPQSHPLVIQYYETQQLIQKEKEKKGKKSNKSRLPQKNNLDEFLRKHTSPIKSIGKVGESRKEILEPVRKRLFVDTDEDTSLEEIPAPTRLTTVDEHSDNDDDSLIFVDEITNSQSVLDSSPGKRIRDLTQDEQVDVWKDAIAISPIKKSRTTNAEKNPPESGLKSRSSITINARLQGTKMLPPNLTAPRLEREHSSVLDQLVTDAQDTVDRFVACDSDSSSTIE
binds	Yen1 SIM1Δ (D635A D636A D637A), HA-tagged, purified (protein, UniProt P40028 1-759) MGVSQIWEFLKPYLQDSRIPLRKFVIDFNKSQKRAPRIAIDAYGWLFECGFIQNIDISARSRSRSRSPTRSPRDSDIDSSQEYYGSRSYTTTGKAVINFISRLKELLSLNVEFLLVFDGVMKPSFKRKFNHEQNATTCDDEKEYYSSWEQHVKNHEVYGNCKGLLAPSDPEFISLVRKLLDLMNISYVIACGEGEAQCVWLQVSGAVDFILSNDSDTLVFGGEKILKNYSKFYDDFGPSSITSHSPSRHHDSKESFVTVIDLPKINKVAGKKFDRLSLLFFSVLLGADYNRGVKGLGKNKSLQLAQCEDPNFSMEFYDIFKDFNLEDLTSESLRKSRYRLFQKRLYLYCKDHSVELFGRNYPVLLNQGSFEGWPSTVAIMHYFHPIVQPYFDEEVLSDKYINMAGNGHYRNLNFNELKYFLQSLNLPQISSFDKWFHDSMHEMFLLREFLSIDESDNIGKGNMRITEEKIMNIDGGKFQIPCFKIRYTTFLPNIPISSQSPLKRSNSPSRSKSPTRRQMDIMEHPNSLWLPKYLIPQSHPLVIQYYETQQLIQKEKEKKGKKSNKSRLPQKNNLDEFLRKHTSPIKSIGKVGESRKEILEPVRKRLFVDTDEDTSLEEIPAPTRLTTVDEHSDNAAASLIFVDEITNSQSVLDSSPGKRIRDLTQDEQVDVWKDVIEISPIKKSRTTNAEKNPPESGLKSRSSITINARLQGTKMLPPNLTAPRLEREHSSVLDQLVTDAQDTVDRFVACDSDSSSTIE
